# Experimental data as given in paper PMC12500962.
# Results are given in words; binding and its absence hold for the method and conditions named. Binding seen in cells or lysates may run through a third protein. Some results given as binding are weak or reduced against the parent protein; the word gives no strength.
# Assays:
# [1] = target: T1, dishevelled (Dvl), DVL1 (human (endogenous in DLD1, HT29, HCT116, RKO)) (UniProt O14640); experiment: co-IP; DLD1 and HT29 cells transfected with control plasmid or full-length APC plasmid; which protein was precipitated is not told
# T1 sequence: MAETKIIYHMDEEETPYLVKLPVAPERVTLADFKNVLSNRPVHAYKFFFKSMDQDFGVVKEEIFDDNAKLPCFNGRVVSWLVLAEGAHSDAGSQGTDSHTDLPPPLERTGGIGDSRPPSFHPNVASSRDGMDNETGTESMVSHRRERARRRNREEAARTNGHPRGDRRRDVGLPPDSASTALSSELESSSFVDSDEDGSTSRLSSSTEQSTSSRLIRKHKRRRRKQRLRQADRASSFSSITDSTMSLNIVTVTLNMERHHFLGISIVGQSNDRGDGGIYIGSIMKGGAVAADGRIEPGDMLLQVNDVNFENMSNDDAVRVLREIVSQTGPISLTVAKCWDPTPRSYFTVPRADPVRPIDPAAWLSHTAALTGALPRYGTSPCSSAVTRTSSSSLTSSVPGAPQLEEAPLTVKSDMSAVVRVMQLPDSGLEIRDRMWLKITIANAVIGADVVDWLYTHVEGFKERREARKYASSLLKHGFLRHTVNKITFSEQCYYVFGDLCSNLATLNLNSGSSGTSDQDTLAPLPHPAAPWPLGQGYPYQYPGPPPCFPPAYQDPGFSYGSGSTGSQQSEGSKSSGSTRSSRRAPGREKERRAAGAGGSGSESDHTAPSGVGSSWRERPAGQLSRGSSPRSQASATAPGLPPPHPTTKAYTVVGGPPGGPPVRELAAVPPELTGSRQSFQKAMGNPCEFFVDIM
# [2] = target: T2, pancreatic progenitor cell differentiation and proliferation factor (PPDPF) (human (endogenous in DLD1, HT29, HCT116, RKO)) (UniProt Q9H3Y8); experiment: as above
# T2 sequence: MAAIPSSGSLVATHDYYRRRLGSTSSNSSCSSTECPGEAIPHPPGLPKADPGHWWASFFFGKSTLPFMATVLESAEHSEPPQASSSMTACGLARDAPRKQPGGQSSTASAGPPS
# [3] = target: β-catenin (human (endogenous in DLD1, HT29, HCT116, RKO)) (UniProt P35222); experiment: as above
# [4] = target: β-catenin (human (endogenous in DLD1, HT29, HCT116, RKO)) (UniProt P35222); experiment: proximity ligation; DLD1, HT29 and HCT116 cells without full-length APC plasmid; primary antibodies against the two proteins; confocal microscopy
# [5] = target: T1, dishevelled (Dvl), DVL1 (human (endogenous in DLD1, HT29, HCT116, RKO)); experiment: proximity ligation; DLD1, HT29 and HCT116 cells transfected with full-length APC plasmid; primary antibodies against the two proteins; confocal microscopy
# [6] = target: T2, pancreatic progenitor cell differentiation and proliferation factor (PPDPF) (human (endogenous in DLD1, HT29, HCT116, RKO)); experiment: as above
# [7] = target: T1, dishevelled (Dvl), DVL1 (human (endogenous in DLD1, HT29, HCT116, RKO)); experiment: condition: only in HCT116 cells (control or full-length APC plasmid); co-IP; HCT116 cells transfected with control or full-length APC plasmid; which protein was precipitated is not told
# [8] = target: T2, pancreatic progenitor cell differentiation and proliferation factor (PPDPF) (human (endogenous in DLD1, HT29, HCT116, RKO)); experiment: as above
# [9] = target: T1, dishevelled (Dvl), DVL1 (human (endogenous in DLD1, HT29, HCT116, RKO)); experiment: condition: only cells without full-length APC overexpression (DLD1, HT29, HCT116); proximity ligation; DLD1, HT29 and HCT116 cells without full-length APC plasmid; primary antibodies against the two proteins; confocal microscopy
# [10] = target: T2, pancreatic progenitor cell differentiation and proliferation factor (PPDPF) (human (endogenous in DLD1, HT29, HCT116, RKO)); experiment: as above
substance,measurement,setting,value
"HECT, UBA, and WWE domain containing E3 ligase 1 (HUWE1) (from UniProt Q7Z6Z7 1-4374) (enzyme)",binding,[1],binds
same,binding,[2],binds
same,binding,[3],binds
same,binding,[4],binds
same,binding,[5],binds
same,binding,[6],binds
same,binding,[7],no binding
same,binding,[8],no binding
same,binding,[9],no binding
same,binding,[10],no binding
